Measurements reported in article PMC2800207 (Nucleic Acids Research, 2009).

Molecular target: NusE (GST cleaved off) (E. coli)
Test: fluorescence polarisation

| binding result | Binder |
| --- | --- |
| binds | NusB^D118A (natural protein) not shown |
| binds | NusB^D118K (natural protein) not shown |
